Experimental data: the supplement of paper PMC4967469
A lower IC50 marks a more sensitive line; fits outside the tested doses are given as limits. AUC is the area under the same curve over the 256-fold range up to the top dose, as a fraction; it is 1 without any effect and falls as sensitivity rises. For some of these results: Any top dose called inferred is not printed in the source and was worked back from the curve model. For some of these results: Where an entry number is given, a second screen of the drug exists; the two often differ.

Columns and labels:
Assay in all cases: Viability of human cancer cell lines after 72 h of drug (GDSC screen)
Docetaxel = compound: CC(=O)O[C@@]12CO[C@@H]1C[C@H](O)[C@@]1(C)C(=O)[C@H](O)C3=C(C)[C@@H](OC(=O)[C@H](O)[C@@H](NC(=O)OC(C)(C)C)c4ccccc4)C[C@@](O)([C@@H](OC(=O)c4ccccc4)[C@H]21)C3(C)C [Docetaxel]; details: top dose 0.0125 µM
Procedure: (§1)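 Human cancer cell lines in 384-well plates, medium with 10% serum, drug for 72 h over a 256-fold dose range (nine 2-fold or five 4-fold steps up to the top dose). Adherent lines were fixed and stained with the nucleic acid dye Syto60, suspension lines read with resazurin; signal relative to control wells, capped at 0 and 100%. One two-parameter sigmoid per drug and line, fitted in a mixed model over all curves with the slope shared within a line.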

AMG-706 = compound: CC1(C)CNc2cc(NC(=O)c3cccnc3NCc3ccncc3)ccc21 [AMG-706]; details: top dose 2 µM; top dose inferred
Procedure: as §1

Cyclopamine = compound: CC1=C2C[C@H]3[C@@H](CC=C4C[C@@H](O)CC[C@@]43C)[C@@H]2CC[C@]12O[C@@H]1C[C@H](C)CN[C@H]1[C@H]2C [Cyclopamine]; details: top dose 16 µM; top dose inferred
Procedure: as §1

JNK Inhibitor VIII = compound: CCOc1nc(NC(=O)Cc2cc(OC)ccc2OC)cc(N)c1C#N [JNK Inhibitor VIII]; details: top dose 10 µM; top dose inferred
Procedure: as §1

NSC-207895 = compound: CN1CCN(c2ccc([N+](=O)[O-])c3no[n+]([O-])c23)CC1 [NSC-207895]; details: top dose 20 µM; top dose inferred
Procedure: as §1

FTI-277 = compound: COC(=O)[C@H](CCSC)NC(=O)c1ccc(NC[C@@H](N)CS)cc1-c1ccccc1 [FTI-277]; details: top dose 1.024 µM; top dose inferred
Procedure: as §1

PHA-665752 = compound: Cc1[nH]c(/C=C2\C(=O)Nc3ccc(S(=O)(=O)Cc4c(Cl)cccc4Cl)cc32)c(C)c1C(=O)N1CCC[C@@H]1CN1CCCC1 [PHA-665752]; details: top dose 2 µM
Procedure: as §1

SB-715992 = compound: Cc1ccc(C(=O)N(CCCN)[C@@H](c2nc3cc(Cl)ccc3c(=O)n2Cc2ccccc2)C(C)C)cc1 [SB-715992]; details: top dose 0.128 µM; top dose inferred
Procedure: as §1

JQ1 = compound: Cc1sc2c(c1C)C(c1ccc(Cl)cc1)=N[C@@H](CC(=O)OC(C)(C)C)c1nnc(C)n1-2 [JQ1]
Procedure: as §1

Belinostat = compound: O=C(/C=C/c1cccc(S(=O)(=O)Nc2ccccc2)c1)NO [Belinostat]; details: top dose 20 µM; top dose inferred
Procedure: as §1

CGP-60474 = compound: OCCCNc1cc(-c2ccnc(Nc3cccc(Cl)c3)n2)ccn1 [CGP-60474]; details: top dose 0.256 µM; top dose inferred
Procedure: as §1

JNJ-26854165 = compound: c1ccc2c(CCNc3ccc(Nc4ccncc4)cc3)c[nH]c2c1 [JNJ-26854165]; details: top dose 10 µM
Procedure: as §1

YM155 = compound: COCC[n+]1c2c(n(Cc3cnccn3)c1C)C(=O)c1ccccc1C2=O [YM155]; details: top dose 5.12 µM
Procedure: as §1

OSI-906 = compound: C[C@]1(O)C[C@@H](c2nc(-c3ccc4ccc(-c5ccccc5)nc4c3)c3c(N)nccn32)C1 [OSI-906]; details: top dose 2.56 µM; top dose inferred
Procedure: as §1

[1] = top dose 1 µM, screen: GDSC drug entry 1218, top dose inferred
[2] = top dose 2.56 µM, screen: GDSC drug entry 163

Cell Line	AUC (Docetaxel)	IC50 (Docetaxel)	AUC (AMG-706)	IC50 (AMG-706)	AUC (Cyclopamine)	IC50 (Cyclopamine)	AUC (JNK Inhibitor VIII)	IC50 (JNK Inhibitor VIII)	AUC (NSC-207895)	IC50 (NSC-207895)	AUC (FTI-277)	IC50 (FTI-277)	AUC (PHA-665752)	IC50 (PHA-665752)	AUC (SB-715992)	IC50 (SB-715992)	AUC (JQ1; [1])	IC50 (JQ1; [1])	AUC (JQ1; [2])	IC50 (JQ1; [2])	AUC (Belinostat)	IC50 (Belinostat)	AUC (CGP-60474)	IC50 (CGP-60474)	AUC (JNJ-26854165)	IC50 (JNJ-26854165)	AUC (YM155)	IC50 (YM155)	AUC (OSI-906)	IC50 (OSI-906)
D-336MG (glioma, adherent)	0.654	2.37 nM	0.976	> 2000 nM	0.963	> 16000 nM	0.979	> 10000 nM	0.903	> 20000 nM	0.947	> 1020 nM	0.975	> 2000 nM	0.614	18.1 nM	0.96	> 1000 nM	0.672	558 nM	0.903	> 20000 nM	0.723	83.7 nM	0.822	8200 nM				
Daudi (Burkitt lymphoma, suspension)	0.99	> 12.5 nM	0.988	> 2000 nM	0.917	> 16000 nM	0.986	> 10000 nM	0.669	3440 nM	0.99	> 1020 nM	0.99	> 2000 nM	0.876	99.5 nM					0.254	277 nM	0.642	37.3 nM	0.881	8170 nM	0.018	< 20 nM	0.979	> 2560 nM
KP-N-YS (neuroblastoma, adherent)					0.972	> 16000 nM					0.978	> 1020 nM	0.967	> 2000 nM	0.648	21.9 nM			0.596	305 nM	0.354	462 nM	0.766	108 nM			0.504	329 nM	0.965	> 2560 nM
KGN (ovary, adherent)	0.668	2.55 nM	0.97	> 2000 nM	0.975	> 16000 nM	0.973	> 10000 nM			0.911	> 1020 nM	0.98	> 2000 nM	0.635	20.5 nM	0.958	> 1000 nM	0.43	98.8 nM	0.316	339 nM	0.492	15.1 nM	0.61	1340 nM	0.057	< 20 nM	0.902	> 2560 nM
CTB-1 (B-cell lymphoma, suspension)	0.844	> 12.5 nM	0.976	> 2000 nM	0.966	> 16000 nM	0.978	> 10000 nM			0.975	> 1020 nM	0.978	> 2000 nM	0.757	59.2 nM	0.958	> 1000 nM	0.633	426 nM			0.743	105 nM	0.867	> 10000 nM	0.039	< 20 nM	0.947	> 2560 nM
